According to the antibiotic and cytotoxicity screens of Wong et al. (2023):
The other results are listed elsewhere or left out.

What was measured:
[1] = system: HSkMC (human skeletal muscle cells); experiment: cytotoxicity call (relative viability < 0.9); conditions: 10 µM
[2] = system: HepG2; experiment: cytotoxicity call (relative viability < 0.9); conditions: 10 µM
[3] = system: S. aureus RN4220; experiment: growth inhibition call (relative growth <= 0.2); conditions: 50 µM

| SMILES | cytotoxicity call [1] | cytotoxicity call [2] | growth inhibition call [3] |
| --- | --- | --- | --- |
| COc1ccc(CCNC(=O)[C@@]2(Cc3ccccc3I)c3ccccc3C(=O)N(Cc3ccccc3)[C@H]2c2ccc(COC(=O)NCCCCCC(=O)NO)cc2)cc1 | inactive | inactive | inactive |
| Cc1cnc(C(=O)NCCc2ccc(S(=O)(=O)NC(=O)NC3CCCCC3)cc2)cn1 | inactive | inactive | inactive |
| COc1ccc2cc(C(C)C(=O)O)ccc2c1 (stereo not drawn) | inactive | inactive | inactive |
| C[C@@H]1CN([C@@H](C)CO)C(=O)c2cc(NC(=O)Nc3ccc4c(c3)OCO4)ccc2O[C@@H](C)CCCCO[C@@H]1CN(C)C(=O)Nc1ccccc1 | inactive | inactive | inactive |
| Cc1ccc(S(=O)(=O)N(C)C[C@H]2OCCCC[C@@H](C)Oc3ccc(NS(=O)(=O)c4ccc(F)cc4)cc3C(=O)N([C@@H](C)CO)C[C@H]2C)cc1 | inactive | inactive | inactive |
| C[C@@H]1CN([C@@H](C)CO)C(=O)Cc2cc(NC(=O)Cn3cnnn3)ccc2O[C@H]1CN(C)C(=O)Nc1ccc2c(c1)OCO2 | inactive | inactive | inactive |
| C[C@@H]1CN([C@H](C)CO)C(=O)Cc2cc(NC(=O)Nc3ccccc3)ccc2O[C@H]1CN(C)Cc1ccc(C(F)(F)F)cc1 | active | inactive | inactive |
| CC(C)C[C@@H]1NC(=O)[C@H]2C[C@@H](C(=O)NCCCCCC[N+](C)(C)C)[C@@H](c3cccc(OCCO)c3)N2C1=O | inactive | inactive | inactive |
| COc1ccc(CNC(=O)C[C@H]2C[C@H]3c4cc(NC(=O)NC5CCCC5)ccc4O[C@H]3[C@@H](CO)O2)cc1 | inactive | inactive | inactive |
| C[C@@H]1CCCCO[C@@H](CN(C)S(=O)(=O)c2ccccc2)[C@H](C)CN([C@@H](C)CO)C(=O)c2cc(NC(=O)c3ccccc3)ccc2O1 | inactive | inactive | inactive |
| C[C@H]1CN([C@@H](C)CO)C(=O)c2cccc(NC(=O)c3ccncc3)c2O[C@@H]1CN(C)Cc1ccncc1 | inactive | inactive | inactive |
| CC(C)NC(=O)Nc1ccc2c(c1)C(=O)N([C@@H](C)CO)C[C@@H](C)[C@H](CN(C)S(=O)(=O)c1ccc(F)cc1)O2 | inactive | inactive | inactive |
| C[C@@H]1CCCCO[C@@H](CN(C)S(=O)(=O)c2cn(C)cn2)[C@H](C)CN([C@H](C)CO)C(=O)c2cc(NS(=O)(=O)c3cn(C)cn3)ccc2O1 | inactive | inactive | inactive |
| C[C@H](CO)N1C[C@H](C)[C@@H](CN(C)Cc2ccc(C(F)(F)F)cc2)Oc2ccc(NS(=O)(=O)c3ccc(Cl)cc3)cc2CC1=O | inactive | inactive | inactive |
| O=C(C[C@H]1C[C@@H]2c3cc(NS(=O)(=O)c4ccc(F)cc4)ccc3O[C@@H]2[C@@H](CO)O1)NCc1ccncc1 | inactive | inactive | inactive |
| C[C@@H]1CN([C@@H](C)CO)C(=O)c2cc(/C=C/c3ccccc3)cnc2O[C@H]1CN(C)S(=O)(=O)c1cn(C)cn1 | inactive | inactive | inactive |
| C[C@@H]1CN([C@@H](C)CO)C(=O)Cc2cc(NC(=O)c3ccncc3)ccc2O[C@H]1CN(C)S(=O)(=O)c1ccc(F)cc1 | inactive | inactive | inactive |
| CCN(CC)CC(=O)N1c2ccccc2CCc2ccc(NC(=O)c3cc(OC)c(OC)c(OC)c3)cc21 | inactive | inactive | inactive |
| Cc1noc(C)c1S(=O)(=O)N(C)C[C@@H]1Oc2c(NS(C)(=O)=O)cccc2C(=O)N([C@@H](C)CO)C[C@H]1C | inactive | inactive | inactive |
| C[C@H]1CN([C@@H](C)CO)C(=O)c2cc(NS(C)(=O)=O)ccc2O[C@@H]1CN(C)C(=O)Nc1ccc(F)cc1 | inactive | active | inactive |
| Cc1noc(C)c1NC(=O)N(C)C[C@H]1OCCCC[C@@H](C)Oc2ccc(NC(=O)CCC(F)(F)F)cc2C(=O)N([C@@H](C)CO)C[C@@H]1C | inactive | inactive | inactive |
| COc1ccc(NC(=O)N(C)C[C@@H]2Oc3ccc(NC(=O)CCCN(C)C)cc3C(=O)N([C@H](C)CO)C[C@@H]2C)cc1 | inactive | inactive | inactive |
| COc1cc(OC)c(C(=O)CCCN2CCCC2)c(OC)c1.Cl | inactive | inactive | inactive |
| COc1ccc(NC(=O)N(C)C[C@@H]2OCCCC[C@H](C)Oc3ccc(NS(=O)(=O)c4ccc(C)cc4)cc3C(=O)N([C@H](C)CO)C[C@H]2C)cc1 | inactive | inactive | inactive |
| CCO[C@H]1OC(C(=O)N2CCOCC2)=C[C@@H](c2coc3ccccc3c2=O)[C@@H]1CCCOC(=O)NCCCCCC(=O)NO | inactive | inactive | inactive |
| COc1ccc(CN(C)C[C@H]2OCCCC[C@@H](C)Oc3ccc(NC(=O)Cc4ccccc4)cc3C(=O)N([C@@H](C)CO)C[C@@H]2C)cc1 | inactive | inactive | inactive |

| SMILES | cytotoxicity call [1] | cytotoxicity call [2] | growth inhibition call [3] |
| --- | --- | --- | --- |
| C[C@@H]1CCCCO[C@H](CN(C)CC2CCCCC2)[C@H](C)CN([C@H](C)CO)C(=O)c2cc(NC(=O)Nc3ccc4c(c3)OCO4)ccc2O1 | inactive | inactive | inactive |
| CCCc1cc(=O)n2ncnc2[nH]1 | inactive | inactive | inactive |
| C[C@@H]1CCCCO[C@H](CN(C)C(=O)Nc2ccc(F)cc2)[C@@H](C)CN([C@@H](C)CO)C(=O)c2cc(NS(=O)(=O)c3ccc(F)cc3)ccc2O1 | inactive | active | inactive |
| O=C(C[C@H]1CC[C@H](NS(=O)(=O)c2ccccc2F)[C@@H](CO)O1)NCCCN1CCOCC1 | inactive | inactive | inactive |
| COc1ccc(S(=O)(=O)Nc2ccc3c(c2)C(=O)N([C@H](C)CO)C[C@H](C)[C@@H](CN(C)S(=O)(=O)c2cn(C)cn2)OCCCC[C@@H](C)O3)cc1 | inactive | inactive | inactive |
| CC(=O)N(C)C[C@H]1Oc2cc(C#CCN(C)C)ccc2S(=O)(=O)N([C@H](C)CO)C[C@@H]1C | inactive | inactive | inactive |
| C[C@@H]1CN([C@@H](C)CO)C(=O)c2cc(NC(=O)Nc3ccc(C(F)(F)F)cc3)ccc2O[C@@H](C)CCCCO[C@@H]1CN(C)C(=O)C1CCCCC1 | inactive | inactive | inactive |
| C[C@H]1CN([C@@H](C)CO)C(=O)c2cccc(NS(=O)(=O)c3ccccc3)c2O[C@@H]1CN(C)S(=O)(=O)c1cccs1 | inactive | inactive | inactive |
| CCCNC(=O)N1C[C@]2(CN(C2)S(=O)(=O)c2ccc(cc2)OC)c2c(n(c3cc(ccc23)OC)C)[C@H]1CO | inactive | inactive | inactive |
| C[C@@H]1CN([C@H](C)CO)C(=O)c2cc(NC(=O)NC3CCCCC3)ccc2O[C@@H](C)CCCCO[C@H]1CN(C)S(=O)(=O)c1cccs1 | inactive | inactive | inactive |
| C[C@@H]1CCCCO[C@H](CN(C)C(=O)c2ccncc2)[C@@H](C)CN([C@H](C)CO)C(=O)c2cc(NS(C)(=O)=O)ccc2O1 | inactive | inactive | inactive |
| C[C@@H]1CCCCO[C@H](CN(C)C(=O)Nc2ccc3c(c2)OCO3)[C@H](C)CN([C@H](C)CO)C(=O)c2cc(NC(=O)c3ccncc3)ccc2O1 | inactive | inactive | inactive |
| COc1ccc(S(=O)(=O)N(C)C[C@@H]2Oc3c(NC(=O)Nc4cccc5ccccc45)cccc3C(=O)N([C@@H](C)CO)C[C@H]2C)cc1C | inactive | inactive | inactive |
| COCc1cc(C)nc2n[nH]c(N)c12 | inactive | active | inactive |
| C[C@H]1CCCCO[C@H](CN(C)Cc2ccc(C(F)(F)F)cc2)[C@@H](C)CN([C@@H](C)CO)C(=O)c2cc(NS(=O)(=O)c3cn(C)cn3)ccc2O1 | inactive | inactive | inactive |
| COc1ccc(CN(C)C[C@H]2OCCCC[C@@H](C)Oc3ccc(NC(=O)Cc4ccccc4)cc3C(=O)N([C@@H](C)CO)C[C@H]2C)cc1 | inactive | inactive | inactive |
| C[C@@H]1CCCCO[C@@H](CN(C)C(=O)CCC(F)(F)F)[C@@H](C)CN([C@H](C)CO)C(=O)c2cc(NC(=O)Nc3ccc4c(c3)OCO4)ccc2O1 | inactive | inactive | inactive |
| C[C@@H]1CN([C@H](C)CO)C(=O)c2cccc(NS(=O)(=O)c3cn(C)cn3)c2O[C@@H]1CN(C)S(=O)(=O)c1ccc(F)cc1 | inactive | inactive | inactive |
| C[C@H]1CCCCO[C@@H](CN(C)CC2CCCCC2)[C@@H](C)CN([C@@H](C)CO)C(=O)c2cc(NS(=O)(=O)c3ccccc3)ccc2O1 | inactive | inactive | inactive |
| COCCCN1C(=O)[C@@]2(Cc3ccccc31)c1ccccc1C(=O)N(Cc1ccccc1C(F)(F)F)[C@H]2c1ccc(CO)cc1 | inactive | inactive | inactive |
| C[C@@H]1CN([C@@H](C)CO)C(=O)c2cc(NC(=O)CCC(F)(F)F)ccc2O[C@@H](C)CCCCO[C@H]1CN(C)Cc1ccc(Cl)c(Cl)c1 | inactive | inactive | inactive |
| COc1nc(=NC(=O)NS(=O)(=O)Nc2cccc3cccnc23)nc(OC)[nH]1 | active | active | inactive |
| C[C@@H]1CCCCO[C@@H](CN(C)S(=O)(=O)c2ccc(F)cc2)[C@@H](C)CN([C@H](C)CO)C(=O)c2cc(NC(=O)Cc3ccccc3)ccc2O1 | inactive | inactive | inactive |
| Cl.NC12CC3CC(CC(C3)C1)C2 | inactive | inactive | inactive |
| C[C@@H]1O[C@@H](O[C@@H]2[C@@H](O)[C@@H](O[C@@H]3O[C@@H](CO)[C@H](O)[C@H]3O)[C@H](OC(=O)[C@]34CCC(C)(C)C[C@H]3C3=CC[C@H]5[C@@]6(C)C[C@H](O)[C@H](O[C@@H]7O[C@@H](C)[C@H](O)[C@@H](O[C@@H]8OC[C@@H](O)[C@H](O)[C@H]8O[C@@H]8O[C@H](CO)[C@@H](O)[C@H](O)[C@H]8O)[C@H]7O)[C@@](C)(CO)[C@@H]6CC[C@@]5(C)[C@]3(C)C[C@H]4O)O[C@H]2C)[C@H](O)[C@H](O)[C@H]1O | inactive | active | inactive |
